# Data as given in PubChem BioAssay AID1240 (Sanford-Burnham Center for Chemical Genomics, 2008).
# Hit rate of the full screen: of about 50,000 compounds, about 800 (1.6%) showed an effect of 50% or more. The list shows a part of the results.
# Target: Bcl-2-like protein 10 (Homo sapiens) (UniProt Q9HD36)
# Assay: TR3 peptide-Bcl-B binding displacers, biochemical primary FP assay, phenotype converters (AID 1240);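 also: 0% = Bcl-B with tracer peptide and DMSO and 100% = tracer peptide lacking Bcl-B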
# Settings: GST-Bcl-B / FITC-TR3 peptide fluorescence polarization; stronger effect = higher value; compound at 3.75 mg/L
# Chain of UniProt Q9HD36 (Q9HD36 whole entry, looked up): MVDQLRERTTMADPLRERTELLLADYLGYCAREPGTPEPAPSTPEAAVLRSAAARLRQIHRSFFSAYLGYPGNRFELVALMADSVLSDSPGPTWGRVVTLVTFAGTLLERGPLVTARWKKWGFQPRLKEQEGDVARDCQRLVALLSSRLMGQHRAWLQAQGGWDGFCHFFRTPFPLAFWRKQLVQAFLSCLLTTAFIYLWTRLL
row,SMILES,displacement [%]
1,COC(=O)c1c(-c2ccc(F)cc2)csc1NC(=O)c1ccc(OC(C)C)cc1,10.6
2,O=C(Nc1ccccc1C(=O)O)c1cccc(N2C(=O)c3ccccc3C2=O)c1,-10.3
3,COc1ccc(CN2CCN(Cc3cc(OC)ccc3O)CC2)cc1,0.8
4,Cc1ccc(S(=O)(=O)NC(Cc2ccccc2)C(=O)Nc2ccc(F)cc2)cc1 (stereo unspecified),-16.4
5,C/C(=C\C(=O)OCCOCCOC(=O)/C=C(\C)NC1CC(C)(C)NC(C)(C)C1)NC1CC(C)(C)NC(C)(C)C1,2.8
6,CCNC(=O)CN(c1ccc(OC)cc1)S(=O)(=O)c1ccc(C)cc1,5
7,CC(=O)NC1=NC(=O)/C(=C\c2ccc(C)o2)S1,96
8,O=C1C(=O)N(CC2CCCO2)C(c2ccccc2F)/C1=C(/O)c1ccccc1 (stereo unspecified),-6.1
9,O=C(Cc1ccc(F)cc1F)Nc1ccc(Br)cc1,10
10,CN(C)c1ccc(/C=C(\NC(=O)c2ccc([N+](=O)[O-])cc2)C(=O)NN)cc1,-54.2
11,CC(C)(C)c1ccc(S(=O)(=O)N=C2C=CC(=O)C=C2)cc1,7.4
12,CC(/C=C1\SC(=S)N(C(C(=O)O)c2ccccc2)C1=O)=C\c1ccccc1 (stereo unspecified),7
13,COc1cccc(NC(=O)c2ccc(CN3CCN(c4ccccc4)CC3)cc2)c1,-3.2
14,COc1ccc2nc(NS(=O)(=O)c3ccc(Cl)cc3)c(Nc3ccc4[nH]c(=O)[nH]c4c3)nc2c1,-2.9
15,CCOC(=O)CSc1nc2sc(C)c(C)c2c(=O)[nH]1,-1.5
16,O=c1/c(=C\c2ccc(OCc3ccccc3)c(Br)c2)sc2nc3ccccc3n12,-19.7
17,O=C1C(=O)N(Cc2ccccc2)C(c2cccc([N+](=O)[O-])c2)/C1=C(/O)c1ccccc1 (stereo unspecified),-2.6
18,O=C1CC(N2CCOCC2)C(=O)N1CCc1ccccc1 (stereo unspecified),-1.1
19,COc1ccc(C(=O)N/C(=C\c2cccc([N+](=O)[O-])c2)C(=O)NCC2CCCO2)cc1 (stereo unspecified),10.3
20,O=C(CSc1nc2sc3c(c2c(=O)[nH]1)CCCC3)NCc1ccco1,59.8
21,CC(=O)Oc1ccc(-c2cccc(C(=O)Oc3ccccc3)c2)cc1,9.8
22,CCOC(=O)c1c(N)sc2c1CCCCCC2,1.7

row,SMILES,displacement [%]
1,CC(=O)C1=C(O)C(=O)N(c2nc3ccccc3s2)C1c1ccccc1F (stereo unspecified),-8.5
2,COc1ccc(Br)cc1C(=O)Nc1ccc(OC(F)(F)F)cc1,1.4
3,CC(C)C(=O)Nc1ccc(Oc2ccc(C(=O)O)c(C(=O)O)c2)cc1,12.4
4,O=C(COc1cccc2ccccc12)Nc1cccnc1,-3.1
5,COc1ccc(CCNc2cc(N3CCN(C(=O)c4ccccc4F)CC3)ccc2[N+](=O)[O-])cc1OC,13.1
6,CCOC(=O)/C(C#N)=C1/C=Cc2ccccc2N1CC,17.9
7,CCc1nnc(NC(=O)C(CC)c2ccccc2)s1 (stereo unspecified),24.6
8,COC(=O)C1=C(C)N(C)C(C)=C(C(=O)OC)C1c1ccncc1,-14.8
9,COC(=O)C1=NN(C(=O)c2cccc(Br)c2)C(O)(c2ccccc2)C1 (stereo unspecified),-11.3
10,CCO/C=N/C1=C(C#N)C(c2ccccc2)C2=C(CC(C)(C)CC2=O)O1 (stereo unspecified),4.5
11,CC(C)(C)c1ccc(OCC(=O)N2CCN(c3ccccn3)CC2)cc1,-10.9
12,O=C(COc1ccc2ccccc2c1)NCc1ccccc1Cl,-6.9
13,CC(=O)n1cc(/C=C2\N=C(c3ccc(C(C)(C)C)cc3)OC2=O)c2ccccc21,72.1
14,O=C(COc1ccc(Cl)cc1)NCCc1cccc(Cl)c1,0.4
15,COC(=O)C1=C(C)N(c2ccc(Br)cc2)/C(=C\c2ccc(OCC(=O)Nc3ccccc3OC)cc2)C1=O,20.3
16,COc1ccc(CN2CCN(C(=O)c3ccc([N+](=O)[O-])cc3)CC2)cc1OCc1ccccc1,-6.8
17,O=S(=O)(/N=C/c1ccccc1)c1cccs1,10.5
18,CCOc1ccc(C2/C(=C(\O)c3ccc(Cl)cc3)C(=O)C(=O)N2CCCn2ccnc2)cc1 (stereo unspecified),5.1
19,COc1ccc(S(=O)(=O)N/N=C/c2c(C)[nH]c3ccccc23)cc1,15.9
20,Cc1c(N(CC(=O)O)S(=O)(=O)c2ccccc2)c(=O)n(-c2ccccc2)n1C,12.9
21,O=C(O)CCN1C(=O)/C(=C/c2ccc(Cl)cc2Cl)SC1=S,11.1
22,CCC(C)C(C(=O)Nc1ccc(I)cc1)N1C(=O)c2ccccc2C1=O (stereo unspecified),11.2

row,SMILES,displacement [%]
1,C=COCCNC(=O)C(=O)Nc1ccc(OC)cc1,5.6
2,C=CCN1C(=O)/C(=C/c2ccccc2Cl)C(=O)NC1=S,-3.5
3,O=C(O)C1CCCCC1C(=O)Nc1nccs1 (stereo unspecified),-2.5
4,Cc1ccc(OCCCCCCN2CCCC2)cc1,-5.3
5,COc1ccc(/C=C2\C(=O)NC(=S)N(c3ccc(Br)cc3C)C2=O)cc1[N+](=O)[O-],16.4
6,O=C1CN(C(=O)c2cc([N+](=O)[O-])c(N3CCCCC3)c([N+](=O)[O-])c2N2CCCCC2)c2ccccc2N1,1.8
7,O=c1n(Cc2ccccc2Cl)c2cc(N3CCOCC3)c([N+](=O)[O-])cc2n1Cc1ccccc1Cl,-9.7
8,COC(=O)c1ccc(N2C(=O)CC(NCCc3ccc(OC)cc3)C2=O)cc1 (stereo unspecified),8.7
9,CCn1c2c(c3cc(C(=O)O)ccc31)CCCC2=O,9
10,COC(=O)CSc1nc2c(c(C3CC=CCC3)c1C#N)CCC2 (stereo unspecified),1
11,O=C1/C(=C\c2cccc(C(F)(F)F)c2)SC(=S)N1c1ccccc1,18
12,O=S1(=O)N=C(Oc2ccc(Cl)cc2)c2ccccc21,-5.3
13,C/C(=N\Nc1cc(-n2cc(C)cn2)ncn1)c1ccc(Cl)c(Cl)c1,-9.7
14,O=C(/C=C\c1cccs1)NC(=S)Nc1ccc([N+](=O)[O-])cc1O,-5.4
15,CC1(C)Nc2ccccc2-c2c1ssc2=NC1CCCCC1,-10.4
16,O=C1S/C(=C\c2cccs2)C(=O)N1c1cccc(Cl)c1,23.6
17,O=C1C(=O)N(CCO)C(c2ccc(Br)cc2)/C1=C(\O)c1ccc(Cl)cc1 (stereo unspecified),13
18,CCOc1cc(OCC)cc(C(=O)Nc2ccc(N3CCOCC3)c(Cl)c2)c1,7.1
19,Cc1cc(Cl)ccc1OC(C)C(=O)NCCC1=CCCCC1 (stereo unspecified),7
20,C/C(=C\C(=O)c1ccc(Cl)cc1)Nc1ccc(Br)c(Cl)c1,-6.6
21,CC(=O)Nc1ccc(NC(=O)c2ccc(C(F)(F)F)cc2)cc1,12.7
22,COc1cc(/C=N/NC(=O)CC2(C)OCCO2)cc(Br)c1OCc1cccc2ccccc12,-2.1
